# Data taken from the supplement of paper PMC10126150.
# Values marked as one replicate rest on one cluster of the flow cell; about a third of the high ones do not repeat.
# Tested on: ATP
# Test: switch fluorescence ratio, 500 uM ATP over buffer (Cy3 cluster intensity, sum of 5 cycles each) (fold (ratio)); higher = stronger signal-on switching upon ATP binding; sequences stand for … in TCGTCGGCAGCGTCAGATGTGTATAAGAGACAGTTTTTTTTTTTTTTTTTTTTTTTTT…TC
# Conditions: aptamer strand: ATP DNA aptamer (quencher-CACCTGGGGGAGTATTGCGGAGGAAGG + anchor), 100 nM annealed; ATP concentration: 500 uM; one replicate
# Summary of the method: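 Exposure to 500 uM ATP lasted 15 min at 22 °C before imaging, and a selection-buffer image was taken beforehand, for Cy3-labelled switching-strand clusters on a modified Illumina MiSeq flow-cell annealed to 100 nM quencher-labelled ATP aptamer. Five buffer/ATP cycles were run with NaOH stripping and re-annealing between them. The fluorescence ratio per cluster is summed target-cycle over summed buffer-cycle Cy3 intensity, averaged per switch-domain sequence. Clusters outside 100-1000 RFU were excluded.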
row,Sequence,switch fluorescence ratio
1,CCGAGCCTGT,1.59
2,CAGCTTGAGC,0.983
3,TTATCAGCTG,1.01
4,ATGGTCAGCT,1.01
5,TAGTTTGACA,0.999
6,TGCAAAAATA,0.983
7,AGCCCATGTT,1
8,GTAGGGGA,1.1
9,ACAGCTTCCA,1.09
10,GATACATTCG,0.983
11,CAGACACATA,1.14
12,TTTCGCATCA,5.5
13,CTTAGAGTTT,1.01
14,ACAAAAAGCA,0.999
15,TAAGTGAGAT,0.973
16,TTCAAAAATA,0.993
17,CGAATCTCAA,1.06
18,CGTGGACAGG,1.02
19,ATAGTCTTAG,1.02
20,TTTCACTCTG,1.05
21,CCGTTAAGTC,1.2
22,GCTCCGCGCA,5.11
23,CCTAAAATC,2.01
24,TCATGCATGG,1.04
25,CTTCACTTGC,1.05
26,TAACGACGCA,3.97

row,Sequence,switch fluorescence ratio
1,CTTATATTAT,0.998
2,CCTTTGTCTT,1.04
3,TATACGGGTT,0.969
4,AAGTCAAGG,0.996
5,TAGAATACAC,1.08
6,AACTTATGTT,0.964
7,CTTAGGTGTG,1.05
8,ACTGTGCGTC,1.02
9,GCCGTCAGTA,1.03
10,CAGATTGAAG,0.979
11,ACCAGACCCA,1.13
12,CGTCAATCGT,1.06
13,GCGTCAGCAA,1.03
14,ACTTAGATAC,1.45
15,CCTTGTCTGA,0.93
16,GCTGGATTC,1.01
17,ACGGTTTTT,1.01
18,GTGTACGTTG,0.984
19,ATCATACGCA,1.98
20,GGTCGCATCA,0.953
21,GAGGCGCGGG,0.956
22,ACTGGCTTTC,1.04
23,TCTCGGAGGT,1.06
24,CTTTCAGTCT,0.987
25,TCTAAGGCGT,1.02
26,GCAATAGAGG,1.15

row,Sequence,switch fluorescence ratio
1,AGACGCAGGT,0.993
2,GGAAAAAAGG,0.989
3,CTGGGCATTC,2.15
4,CGAGTGCATG,1.01
5,TGTCCAAGGG,1
6,GAAACAGG,1.05
7,TATATGCCCA,0.977
8,ATGGCTGCAC,1.01
9,TTTGCATAAG,0.995
10,GAGTCGATGC,1.09
11,CTCGTTTTGC,0.945
12,GAATTGGGAT,1.03
13,TTAGGGCCGG,0.96
14,AAGAGATAGC,1.11
15,CCTTTCTTCG,3.03
16,TATCTTCGGC,1
17,AATTCGCTTT,1
18,GCTCTTGGTG,1.08
19,TTATCCCCTG,1.06
20,GCTCTCTTCC,1.78
21,ATCGAGGAGA,1.01
22,TGCGTAACTT,1.04
23,GTCCCCATTT,1.12
24,AGTTGCCTTG,0.982
25,TAATGGGAAC,1.02
26,GGCAAGTGAT,1.03

row,Sequence,switch fluorescence ratio
1,ACAAATTATC,1.02
2,GAACTAGA,1.04
3,ATTACGCTCG,0.987
4,CGTCAATTGT,1.05
5,GGCCCGATCT,0.978
6,CCGATTAATC,1.34
7,TAGAAGCCTA,0.957
8,CCAAGGCAC,1.43
9,ACAGAGCACC,1.12
10,CGTCTGATGC,1.04
11,AGTTCGCCC,1.1
12,GACTGGGGCC,1
13,CGCTAGAGTG,1.02
14,ATGCAGCTGC,0.977
15,TGGGGAACAG,0.988
16,TCACCATTTA,1.05
17,CCTGGTACTC,1.54
18,TGGTGCGTCG,1.08
19,TATTCGCTT,0.934
20,ATCGGCCGAA,0.996
21,TTGAGATGAG,0.978
22,GCATGTTACT,1.12
23,AACCGGAGTC,1.57
24,TCCAGTACGT,1.01
25,TGTCGTGGTG,1.01
26,TCATTCGCGT,1.27

row,Sequence,switch fluorescence ratio
1,CCCGTCCTTC,1.1
2,ACATTCGTAA,1
3,TGATCGTACG,1.02
4,CCTACTCTGG,1.03
5,AATTGCGTAA,0.973
6,TTCGACGGAT,1.07
7,TGGATGGTTA,1.01
8,AAAGGTCCAT,0.986
9,CTTGGTCCGG,1.03
10,CAAAGTTTAC,1.56
11,GGGTCTAGAC,0.979
12,AATGGCTGGA,0.959
13,GAGCATTGCT,1.06
14,AAATGTTGGC,1.03
15,CTTAGTGTTT,1.03
16,ATCTAGGCGC,0.954
17,GTCTATTGGT,0.975
18,TATGCTCACC,1.21
19,AACCTATTTA,0.973
20,AGGTGTCATC,1.01
21,AGTCGCGACG,0.928
22,TCGCTCTCGT,1.05
23,TAGGTTTTCA,1.01
24,GAGTAAATAT,1
25,CGTGGTCACT,1.02
26,AATAACACTG,0.991

row,Sequence,switch fluorescence ratio
1,AAATTTCTCA,1.04
2,TGATTGTAGG,1.04
3,AGTATGCTTC,0.975
4,CAGCCTTAAA,0.987
5,GCGGCCGATC,1.03
6,CTCTACCGCC,1.53
7,CGACGCCCCG,1.07
8,GGGGATGCCG,1.09
9,CAACATGAAC,1.06
10,ATTTTTAAAG,0.975
11,ATTGTGAAAC,1.02
12,TCAAAATCAC,1.11
13,AATTCGTTTT,1
14,TAACCGCTGA,1.29
15,AAGCCGTCTG,1.08
16,CACCGGGGAA,0.997
17,CGAGGAGTTC,1.01
18,CTGCTTAAA,0.984
19,CTAAGCCAGC,1.06
20,GGAAAACCGA,1.09
21,TTTTAGCCTA,1.12
22,AAAGCTACTC,1.6
23,GGACAGTGG,1.01
24,TCCACGTTAA,1.3
25,GTAACGGAAA,0.96
26,GCTAGGTTAA,1.02

row,Sequence,switch fluorescence ratio
1,TGCATAGGGC,0.992
2,ATGTGCGGAG,1
3,GAGGTGGCGC,0.971
4,GCAGCTATTT,1.17
5,CAGCTGGAG,1.01
6,AGAAAACGGC,0.992
7,GAGCCCCACT,1.04
8,GGGATATTCT,1.21
9,TTCATATCCA,1
10,GGCAGTGTAA,1.02
11,ACCTAACTGT,1.14
12,AAGGTATCGA,0.965
13,CAGCGGGTGA,1.05
14,CGCAACGACT,1.81
15,CGACGGGAGG,1.01
16,TTGAAAACTT,0.944
17,ATAAGCGCGA,0.991
18,CGACGGTATT,1.29
19,TGTGGGTGT,1.04
20,CTTGACTCAC,1.19
21,TGGGCATGTT,1.01
22,TCTTGCCTTC,0.989
23,GAAGAATCGC,1.03
24,GCCTTACTC,2.31
25,GGGTCTATCC,1.01
26,TAGTACTTAG,1.01

row,Sequence,switch fluorescence ratio
1,TCATTTCGAG,1.75
2,GAATAAGTTC,0.992
3,ATCGTCCCCG,1.02
4,TGTAGTCATA,1.01
5,CTTTTCGACC,1.11
6,GAACAAGATA,1.03
7,AGTTTTTTAA,0.979
8,TCCGACCCTG,1.06
9,TGCTACTCTG,1.06
10,CAACGTAAAG,1.05
11,CACATGGTCT,1
12,TGAGATAAGA,1
13,ACTAGGAGGC,1.08
14,TTGGTACTCC,1.07
15,TCAATCCTCC,1.46
16,GGTGAAACT,0.99
17,TTTGTTTTCC,1.01
18,ACCTGATTT,1.01
19,ACTCCAACTC,1.94
